# From PubChem BioAssay AID651820 (National Center for Advancing Translational Sciences (NCATS), 2012)
# The campaign covered roughly 340,000 compounds. About 12,000 (3.5%) were called active. The shares of active, inactive and inconclusive entries below differ from those in the screen. The call rests on the fitted dose curve; in most records, active means well fitted inhibition curve with a large enough effect; inconclusive means small, poorly fitted or top-dose-only effect, or another doubt; inactive means no such curve, though single readings can be large or run the other way. Potencies of inconclusive entries are left out as doubtful fits.
# Assay: qHTS Assay for Inhibitors of Hepatitis C Virus (HCV)
# Conditions: Huh7.5.1 HCVcc-Cre (HCVcc is cell-culture hepatitis C virus) infection, luciferase reporter, 44 h; activity change, negative = inhibition: at 41.8 µM (top of the series)
# Procedure, shortened: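 Infectious HCV cell culture screen: compound-treated cells (1,000/well, pre-plated 4 h) are infected with HCVcc-Cre at roughly 0.5 moi and grown 44 h. Infection is quantified by luciferase signal after 15 min substrate incubation at room temperature.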
# On the % scale 0 is the no-effect control and ±100 the full control effect; potency means the concentration at half of the fitted maximal effect; tags describe the fitted curve by direction and shape.
Compound,Potency,"activity change, negative = inhibition"
COc1ccc(Cl)cc1C(=O)OCC(=O)c1ccc[nH]1,"inconclusive [inhibitor, single point]",
CCN(CC1CCCN(CCc2cccc(F)c2)C1)C(=O)c1cc2ccccc2o1 (stereo not drawn),"inconclusive [inhibitor, single point]",
CC(CNC(=O)Cn1ccc2cc(S(=O)(=O)N3CCCC3)ccc21)c1ccccc1 (stereo not drawn),"inconclusive [inhibitor, partial curve]",
Cc1cccc(CSc2nc3ccccc3c(=O)n2C)c1,active: 22.4 µM,
CCCCOCCCn1c(N)c(C(=O)OC(C)COC)c2nc3ccccc3nc21 (stereo not drawn),"inconclusive [inhibitor, single point]",
COc1ccc(OCc2ccc(C(=O)NN)cc2)cc1,inactive,
C(=N\N1CCN(c2ccccn2)CC1)/c1cccc2ccccc12,"inconclusive [inhibitor, single point]",
COc1ccccc1N1CCN(/N=C/C=C\c2ccccc2[N+](=O)[O-])CC1,"inconclusive [inhibitor, single point]",
Cc1ccc(Nc2nc(-c3ccc(O)c(O)c3)cs2)nc1,"inconclusive [inhibitor, partial curve]",
Cc1ccc(NC(=O)c2ccccc2NS(=O)(=O)c2ccc(F)cc2)cc1S(=O)(=O)N1CCCCC1,"inconclusive [inhibitor, partial curve]",
CCOc1ccc(OCC)c(-c2c(=O)n(OCc3ccc(C(C)(C)C)cc3)c3ccccc3[n+]2[O-])c1,inactive,
COc1ccc(NC(=O)c2cccc(-c3ccc(O)cc3)c2)cn1,"inconclusive [inhibitor, single point]",
COc1ccc(OC)c(-c2csc(NC(=O)Cc3cccs3)n2)c1,"inconclusive [inhibitor, partial curve]",
COc1ccc(Br)cc1C(=O)Nc1cccc(C)c1,"inconclusive [inhibitor, partial curve]",
CN(C(=O)C1CCOC1)c1nnc(-c2ccccn2)s1 (stereo not drawn),inactive,
CC(C)Cn1cc(C(=O)N2CCN(c3ccccn3)CC2)c2c3ccccc3n(C)c2c1=O,"inconclusive [inhibitor, single point]",
O=C(CNC(=O)c1ccccc1)OCC(=O)N1N=C(c2ccc(Cl)cc2)CC1c1ccco1 (stereo not drawn),inactive,
Cc1cccn2c(=O)c3cc(C#N)c(=NC(=O)c4cccs4)n(CCCOC(C)C)c3nc12,"inconclusive [inhibitor, full curve]",
COc1ccc(N(CC(=O)N2CCN(c3cccc(Cl)c3)CC2)S(=O)(=O)c2c(C)noc2C)cc1,"inconclusive [inhibitor, single point]",
CCN(CC(=O)Nc1cccc(S(=O)(=O)N(C)c2ccccc2)c1)Cc1ccccc1,"inconclusive [inhibitor, single point]",
CCCCNC(=O)c1cccc(NC(=O)C(=O)c2ccccc2NC(C)=O)c1,"inconclusive [inhibitor, partial curve]",
COc1ccc(OC)c(NC(=O)NCCCCc2ccccc2)c1,"inconclusive [inhibitor, single point]",

Compound,Potency,"activity change, negative = inhibition"
C=C(C)C1CC=C(C)/C(=N/NC(=O)CCCNc2cccc(C)c2)C1 (stereo not drawn),"inconclusive [inhibitor, single point]",
CCOC(=O)C1=C(C(=O)OCC)N(CC)CCC1=O,"inconclusive [inhibitor, single point]",
COc1ccc(CNC(=O)CN2CCN(S(=O)(=O)c3cc(Br)ccc3Br)CC2)cc1OC,inactive,
COc1cc2c(cc1OC)[C@@H]1Cc3ccc(OC)c(OC)c3CN1CC2,"inconclusive [inhibitor, partial curve]",
CCCCn1c2ccc(C)cc2c2nnc(SCCN3CCCCC3)nc21,"inconclusive [inhibitor, partial curve]",
C/C(CC(=O)Nc1ccc2c(c1)OCCO2)=N\NC(=O)COc1cccc(C)c1,inactive,
COc1ccc([N+](=O)[O-])cc1N(CC(O)CN(CC(C)C)CC(C)C)S(=O)(=O)c1ccc(C)cc1 (stereo not drawn),"inconclusive [inhibitor, single point]",
COc1ccc(CNC(=O)COc2cc(O)c3c(c2)OC(C)(C)CC3=O)c(OC)c1,"inconclusive [inhibitor, single point]",
COc1ccc(Cl)cc1Nc1nc(N)nc(C(F)(F)F)n1,"inconclusive [inhibitor, partial curve]",
CCOC(=O)c1c(-c2ccc(C)o2)csc1NC(=O)CN(C)CC(=O)Nc1ccc(C)cc1,"inconclusive [inhibitor, full curve, poor fit]",
COC(=O)C1CC(=O)N(CCc2c[nH]c3ccccc23)C1 (stereo not drawn),inactive,
Cc1ccnc(Nc2nc(-c3ccc(F)cc3)cs2)c1,"inconclusive [inhibitor, partial curve, poor fit]",
O=C(NCc1ccc(F)cc1)c1ccncc1,inactive,
O=c1[nH]cc(S(=O)(=O)N2CCOCC2)c(=O)[nH]1,,inconclusive: -67.3% [inhibitor]
COC(=O)c1sc2ccccc2c1-n1cccc1C(=O)C(=O)Nc1ccc(Cl)cc1,"inconclusive [inhibitor, partial curve, poor fit]",
COc1cc2ncnc(NCc3cccc(Cl)c3)c2cc1OC,"inconclusive [inhibitor, partial curve]",
COc1ccc(OCC(O)CNCCNc2nccc(C(F)(F)F)n2)cc1 (stereo not drawn),inactive,
CN(c1cccc(NC(=O)CN(c2cccc(Cl)c2)S(=O)(=O)c2ccc(Cl)cc2)c1)S(C)(=O)=O,active: 22.4 µM,
C=CCn1cnc2c(c1=O)c1nc3ccccc3nc1n2/N=C/c1cc(OC)c(OC)c(OC)c1,"inconclusive [inhibitor, full curve, poor fit]",
O=C(NC1CCCC1)C(c1cccnc1)N(CCc1ccccc1)C(=O)c1ccco1 (stereo not drawn),inactive,
COc1ccc(C(=O)N2CCN(C3CCC(c4ccccc4)CC3)CC2)cc1OC (stereo not drawn),"inconclusive [inhibitor, partial curve]",
